Test results reported in PubChem BioAssay AID662 (National Center for Advancing Translational Sciences (NCATS), 2007).
Out of some 71,000 compounds screened, about 1,800 (2.5%) were called active. Inconclusive means that the source gave no clear call. Such entries were picked first, then a sample of the others. Calls follow the shape of the dose curve; as a rule, active = well fitted activation curve with a large enough effect in the signal ratio, with a control signal flat (not every such curve was filed as active); inconclusive = small, poorly fitted or top-dose-only effect, or effect the other way, or a change in a side signal; inactive = flat fitted curve, though single readings scatter; the % refers to the signal ratio. Potencies beside an inconclusive call are fits to weak or partial responses and may not hold up.

Test: Cell signaling CRE-BLA (Fsk stim); as to activity change, negative = inhibition: % of control where 0% means no effect
Conditions: CHO CRE-bla reporter (cAMP response element driving beta-lactamase), forskolin EC10, beta-lactamase ratio; activity change, negative = inhibition: at 38.2 µM (top of the series) unless noted
Outline: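 The 460nm/530nm emission ratio after CCF4 loading defined %Activity, from which AC50 values were obtained. CRE-bla CHO cells received compound dilution series together with an EC10 level of NKH 477 for 3 hours at 37 degrees Celsius.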
Potency is read from the fitted curve at half-maximal effect; tags tell the direction and shape of the fitted curve.

| SMILES | activity change, negative = inhibition | Potency |
| --- | --- | --- |
| CCOC(=O)C1=C(C)Nc2nc(SC)nn2C1c1ccc(C(=O)OC)cc1 (stereo not drawn) | inconclusive: 4.26% |  |
| C/C(Cl)=C/Cn1c(SCc2ccc(Cl)cc2)nc2c1c(=O)[nH]c(=O)n2C |  | inactive |
| N#Cc1nc(N2CCCCC2)nc(N2CCOCC2)n1 |  | inconclusive: 7.94 µM [rising, partial curve] |
| COc1cccc(-c2csc(N3CCN(C(=O)C4CCCCC4)CC3)n2)c1 | inconclusive: -25.1% |  |
| CC(=O)Nc1ccc(S(=O)(=O)N(C)c2ccc(O)cc2)cc1 |  | inconclusive: 5.01 µM [falling, single point] |
| COc1ccc(C(=O)c2ccc(OC)c(OC)c2)cc1OC | inconclusive: -12.2% |  |
| FC(F)(F)c1ccccc1-c1ccc2ncnc(NC3CC3)c2c1 |  | inconclusive: 10 µM [rising, partial curve] |
| c1ccc(-c2nc(NCc3ccco3)c3ccccc3n2)nc1 |  | inconclusive: 12.6 µM [rising, single point] |
| CC(C)c1ccc(NC(=O)c2cccnc2)cc1 | inconclusive: 3.6% [at 7.6 µM] |  |
| Cc1ccc(C2CC(=O)c3cnc(N4CCN(c5ccccc5)CC4)nc3C2)cc1 (stereo not drawn) | inconclusive: 21.4% |  |
| CC(=O)NCCNc1ncnc2ccc(-c3ccc(C(=O)N(C)C)cc3)cc12 |  | inactive |
| N=C1C(c2nc3ccccc3[nH]2)=C(O)CN1c1ccccc1 |  | inactive |
| Cc1ccc2nc(NC(=O)C3CCCN(S(=O)(=O)c4cccc5nonc45)C3)sc2c1 (stereo not drawn) |  | inactive |
| CCN(C(=O)CN1CCN(c2ccccc2)CC1)c1c(N)n(Cc2ccccc2)c(=O)[nH]c1=O |  | inactive |
| CCOC(=O)c1c(NC(=O)OC)sc2c1CCC2 |  | inconclusive: 12.6 µM [rising, single point] |
| O=C(CSc1n[nH]c(-c2ccccc2)n1)NC(=O)NCc1ccco1 | inconclusive: 0.646% |  |
| O=c1c(-c2ccc(Cl)cc2)nc2cncnc2n1Cc1ccccc1 |  | active: 12.6 µM |
| Cc1nn(CCO)c(C)c1Oc1ccccc1O | inconclusive: 29.3% |  |
| COCCn1nnnc1CN(Cc1cc2cc(OC)c(OC)cc2[nH]c1=O)C1CCCC1 | inconclusive: 19.5% |  |
| CC(C)CCOCC(=O)Nc1cccc(C(=O)O)c1 | inconclusive: 11.2% |  |
| CCOc1ccccc1NC(=O)c1ccccc1-c1nc(-c2ccccc2)no1 |  | inconclusive: 0.316 µM [rising, partial curve] |
| O=c1[nH]c(SCc2cc(=O)n3ccccc3n2)nc2c1CCC2 |  | inconclusive: 6.31 µM [rising, partial curve] |
| COC(=O)c1ccc(S(=O)(=O)NCCSc2nnc3c4ccccc4n(C)c3n2)cc1 |  | inconclusive: 2.51 µM [rising, single point] |
| O=c1c(-c2cccs2)nc2cnc(N3CCNCC3)nc2n1-c1ccccc1 |  | inconclusive: 1 µM [rising, partial curve] |
| CCOc1cc(C2NC(=O)NC(C)=C2C(=O)OC(C)CC)cc(Br)c1O (stereo not drawn) |  | active: 10 µM |
| COCCn1c(=S)[nH]c2cc(C(=O)N3CCN(c4ccc(F)cc4)CC3)ccc2c1=O | inconclusive: 10.4% |  |
| COc1ccccc1-c1ccc2ncnc(NCc3cccnc3)c2c1 | inconclusive: 22.5% |  |

| SMILES | activity change, negative = inhibition | Potency |
| --- | --- | --- |
| Cc1ccc(C)cc1 |  | inactive |
| O=C(NCc1ccc2c(c1)OCO2)C1CCC(CNS(=O)(=O)c2ccccc2)CC1 (stereo not drawn) |  | inconclusive: 0.1 µM [falling, full curve, poor fit] |
| COC(=O)c1ccc(NC(=O)CNC(=O)C2CCCCC2)cc1 | inconclusive: -10.8% [at 7.6 µM] |  |
| COc1ccc(OC)c(NC(=O)C2CCCN2C(=O)C2CCC(C)CC2)c1 (stereo not drawn) |  | inactive |
| COCCNS(=O)(=O)c1ccc(OCC(=O)OC)c(Cl)c1 |  | inactive |
| CC(C)(C)C1CCC2(CC1)CCN(CCCN1CCOCC1)CC2 | inactive: -4.72% [at 7.6 µM] |  |
| CCSc1nnc2c(n1)OC=Nc1ccc(Br)cc1-2 | inconclusive: 11.3% |  |
| COc1cccc(Cn2c(=O)c(-c3ccccc3)nc3cnc(OC)nc32)c1 |  | active: 10 µM |
| O=C(CSc1nnc(-c2ccc(S(=O)(=O)N3CCCC3)cc2)o1)NCc1ccco1 |  | inactive |
| COc1ccc(NC(=O)CC(=O)Nc2ccc(OC)cc2OC)c(OC)c1 |  | inconclusive: 1.58 µM [rising, partial curve] |
| CCCCCOC(=O)C1=C(C)NC(=O)NC1c1ccccc1OCC (stereo not drawn) |  | inconclusive: 10 µM [rising, single point] |
| CCOC(=O)c1ccc(-n2c(=S)sc3c(=O)[nH]c(C)nc32)cc1 | inconclusive: 11.1% |  |
| CCCn1c(SCCc2ccccc2)nc2c1c(=O)[nH]c(=O)n2C |  | inconclusive: 12.6 µM [rising, partial curve] |
| Cc1cc(NC(=O)CN2CC3CC(C2)c2cccc(=O)n2C3)nc2c1c(=O)oc1ccccc12 (stereo not drawn) | inconclusive: 24.2% |  |
| Cc1cc(C(=O)O)ccc1[C@H](N)C(=O)O |  | inconclusive: 1 µM [falling, single point] |
| O=C(Nc1ccccn1)NC12CC3CC(CC(C3)C1)C2 |  | inactive |
| Cc1ccc(S(=O)(=O)c2c(C)nn(C(C)(C)C)c2OC(=O)c2ccc(Br)o2)cc1 | inconclusive: -21.1% |  |
| COc1ccc(CCNC(=O)c2ccn[nH]2)cc1OC | inconclusive: 25.3% |  |
| COc1cccc(CNC(=O)Nc2cccs2)c1 |  | inactive |
| CC1CC(C)CN(C(=O)CSc2nnc(-c3ccc(Cl)s3)o2)C1 (stereo not drawn) | inconclusive: 16.3% |  |
| CCCCN1CCc2c([nH]c3c(C)cccc23)C1=O |  | inactive |
| COc1ccccc1N1CCN(C(=O)C2c3ccccc3Oc3ccccc32)CC1 |  | inconclusive: 10 µM [rising, partial curve] |
| O=c1c(-c2cccs2)nc2cncnc2n1Cc1ccc(F)cc1 |  | inconclusive: 1.58 µM [rising, partial curve] |
| C=CCNC(=O)CC(C)C(CCCCC)C(=O)O (stereo not drawn) |  | inactive |
| O=C(c1c(Cl)nc2sccn12)N1CCN(c2cccc(Cl)c2)CC1 |  | inconclusive: 15.8 µM [rising, single point] |
| Cc1cc(C)nc(-n2nc(C)cc2NC(=O)CN2CCC(C)CC2)n1 |  | inconclusive: 10 µM [rising, partial curve] |
